Assay results published in PubChem BioAssay AID1030 (National Center for Advancing Translational Sciences (NCATS), 2008).
The whole screen tested about 220,000 compounds, of which about 16,000 (7.3%) were called active. Inconclusive means that the source gave no clear call. Such entries were picked first, then a sample of the others. Calls come from the whole dose curve; as a rule, active = well fitted inhibition curve with a large enough effect (not every such curve was filed as active); inconclusive = small, poorly fitted or top-dose-only effect, or another doubt; inactive = no such curve, though single readings can be large or run the other way. Potencies of inconclusive entries are left out as doubtful fits.

Each compound was assayed against Aldehyde dehydrogenase 1A1 (Homo sapiens) (UniProt P00352) (assay: qHTS Assay for Inhibitors of Aldehyde Dehydrogenase 1 (ALDH1A1)). Settings: Purified ALDH1A1, NADH fluorescence, propionaldehyde substrate; series mostly up to 75.3 µM; activity, negative = inhibition: at the top concentration.
UniProt P00352, sequence (P00352 whole entry, looked up): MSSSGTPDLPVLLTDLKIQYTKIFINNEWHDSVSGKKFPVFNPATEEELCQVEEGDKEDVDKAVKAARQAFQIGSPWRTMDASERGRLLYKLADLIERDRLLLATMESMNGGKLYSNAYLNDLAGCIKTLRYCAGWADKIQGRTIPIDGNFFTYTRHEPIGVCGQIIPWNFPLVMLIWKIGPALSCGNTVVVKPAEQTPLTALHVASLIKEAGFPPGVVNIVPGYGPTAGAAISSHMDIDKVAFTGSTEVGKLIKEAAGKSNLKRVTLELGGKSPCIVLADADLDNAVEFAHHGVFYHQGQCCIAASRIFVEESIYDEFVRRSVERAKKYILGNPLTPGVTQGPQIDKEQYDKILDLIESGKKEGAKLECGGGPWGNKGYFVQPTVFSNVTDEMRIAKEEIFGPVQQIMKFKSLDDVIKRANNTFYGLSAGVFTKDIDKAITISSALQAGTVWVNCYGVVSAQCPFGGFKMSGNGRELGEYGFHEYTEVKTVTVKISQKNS
Potency is the fitted concentration of half-maximal effect; tags give direction and shape of the fitted curve.
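Throughout, for activity, negative = inhibition: plate controls were no enzyme wells and a reference inhibitor.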

SMILES	Potency	activity, negative = inhibition
COc1ccc(CCNC(=O)C23CCC(C)(C(=O)C2=O)C3(C)C)cc1OC (configuration not stated)	inconclusive [inhibitor, partial curve]	
O=C(CSc1nnc(-c2ccccn2)n1Cc1ccccc1)N1CCCC1		inactive: -11%
Cc1c(C2=CCN(S(=O)(=O)c3ccc(Br)cc3)CC2)c2ccccc2n1C		inactive: -14.1%
CCOc1c2ccc(C(=O)NCC34CC5CC(CC(C5)C3)C4)cc2nn1CC	inconclusive [inhibitor, partial curve]	
COc1ccc(CCn2c(NCCCN3CCOCC3)nc3c2c(=O)[nH]c(=O)n3C)cc1		inactive: 3.52%
COc1cc(OC)cc(C(=O)N2CCN(Cc3cccc(F)c3)CC2)c1	inconclusive [inhibitor, single point]	
COC(=O)C1CC(=O)c2ccsc2C1 (configuration not stated)		inactive: 5.21%
O=C(Nc1ccccc1C(=O)N1CCOCC1)C1CC(=O)N(C2CCCC2)C1 (configuration not stated)	inconclusive [inhibitor, single point]	
C=C(C(=O)OCC)C(=O)c1ccccc1	active: 14.1 µM	
CC(=NCCc1c(C)[nH]c2ccc(OC(F)(F)F)cc12)C1=C(O)CC(c2ccccc2)CC1=O (configuration not stated)		inactive: -1.95%
CCOC(=O)CNC(=O)N1CCCC(CCC(=O)NCc2ccc(F)c(F)c2)C1 (configuration not stated)	active: 31.6 µM	
O=C(CCn1cccc1)Nc1ccc(OC(F)(F)F)cc1		inactive: -1.74%
COc1ccc(CCNS(=O)(=O)c2ccc(C(=O)NCc3ccco3)cc2)cc1OC	inconclusive [inhibitor, single point]	
COCCn1c(C)cc(C(=O)COC(=O)c2ccc3c(c2)NC(=O)CS3)c1C		inactive: -1.99%
CCN1CCN(C(=O)c2cc3c(=O)n4ccccc4nc3n2Cc2ccccc2)CC1	inconclusive [inhibitor, partial curve]	
COc1ccc(NCc2nnc(SCC#N)n2-c2ccccc2OC)cc1		inactive: 5.07%
CC1CCCN(c2oc(-c3cccc4ccccc34)nc2C#N)C1 (configuration not stated)	inconclusive [inhibitor, partial curve]	
CC1=CC(=O)C2=C(C)C[C@@H]3OC(=O)[C@@H](C)[C@H]3C=C12		inactive: 3.18%
CCOC(=O)C1CCc2sc(N)c(C#N)c21 (configuration not stated)	inconclusive [inhibitor, single point]	
COc1cccc(C2CC(=O)N3CN(c4cccc(Cl)c4C)CSC3=C2C#N)c1OC (configuration not stated)	active: 3.16 µM	
O=c1[nH]cnc2sc(-c3ccccc3)cc12	inconclusive [inhibitor, single point]	
COc1ccc(C(=O)COc2ccc(NC(C)=O)cc2)cc1	inconclusive [inhibitor, single point]	
O=C(/C=C/N1CCOCC1)c1ccc(-c2ccccc2)cc1	inconclusive [inhibitor, partial curve]	
O=C1/C(=C/c2cccnc2)CCc2c1[nH]c1ccccc21	inconclusive [inhibitor, single point]	

SMILES	Potency	activity, negative = inhibition
Cc1ccccc1C1CC(=O)Oc2ccc(O)cc21 (configuration not stated)	active: 20 µM	
COc1ccc(-c2oc3ccccc3c(=O)c2OCC(=O)O)cc1	inconclusive [inhibitor, partial curve]	
Cc1cccc(-n2c(SCC(=O)N3CC(=O)Nc4ccccc43)nc3ccccc3c2=O)c1	inconclusive [inhibitor, single point]	
CCOCCCNC(=O)COc1ccc(OC)cc1	inconclusive [inhibitor, single point]	
Cc1cc(=O)oc2cc(OCCSCCN3CCCCC3)ccc12	inconclusive [inhibitor, partial curve]	
O=C(CCC(=O)Nc1ccc(F)cc1)N/N=C/c1ccncc1		inactive: 3.32%
Cc1cc(=O)[nH]c(-n2[nH]c3c(c2=O)CCCC3)n1	inconclusive [inhibitor, full curve, poor fit]	
Cc1ccccc1OC/C(O)=C(\C#N)c1nc2ccccc2[nH]1	inconclusive [inhibitor, single point]	
CN(C)c1ccc(-c2nc3ccccn3c2/N=C/c2ccc(Br)cc2)cc1	inconclusive [inhibitor, partial curve]	
COc1ccc(OC)c(S(=O)(=O)N2c3cc(F)ccc3CCC2C)c1 (configuration not stated)	inconclusive [inhibitor, single point]	
CC(=O)Nc1nonc1-c1nc2ccccc2n1CCC#N	inconclusive [inhibitor, single point]	
COc1ccc(-n2nnc3c(SCC(=O)c4ccccc4)ncnc32)cc1	inconclusive [inhibitor, partial curve]	
COc1ccc(/C=C/C(=O)NCCNC(=O)c2ccccc2)cc1OC	inconclusive [inhibitor, single point]	
N#Cc1cc(O)c(-n2nnc3ccccc32)cc1C#N		inactive: -11.9%
O=C(N/N=C1/SCC(=O)N1Cc1ccco1)c1ccccc1F	inconclusive [inhibitor, single point]	
COC(=O)c1sc(NC(=O)/C=C/c2ccccc2Cl)nc1C		inactive: -15.2%
Cc1nc(SCC(=O)Nc2cc(C)on2)c2c3c(sc2n1)CCCC3	inconclusive [inhibitor, single point]	
Cc1cc(C)n(-c2ccc(C(=O)Nc3ccc(C)c(S(=O)(=O)N(C)C)c3)cc2)n1	inconclusive [inhibitor, single point]	
Cn1c(=O)c2c(ncn2CC(=O)N/N=C/C(Cl)=C/c2ccccc2)n(C)c1=O	inconclusive [inhibitor, single point]	
CCn1nnnc1-c1ccc(OC)c(S(=O)(=O)N2CCCCC2)c1	inconclusive [inhibitor, single point]	
CCN(CC)CCCN1C(=O)c2oc3ccccc3c(=O)c2C1c1cccc(OC)c1OC (configuration not stated)		inactive: 7.07%
COc1ccc([N+](=O)[O-])cc1/C=N/NC(=O)/C(=C\c1cccs1)NC(=O)c1ccccc1		inactive: -4.14%
O=C(CCSc1ccc(Cl)c(Cl)c1)NC12CC3CC(CC(C3)C1)C2		inactive: -6.86%
